Test results from the supplement of paper PMC11417369.
The list shows a part of the results.

System: PfAP2-HC AP2 domain (GST-tagged)
Assay: gcPBM binding intensity (ln(normalized median fluorescence intensity)); higher = stronger DNA binding
Procedure, shortened: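 Plasmodium falciparum DNA-binding domains carrying a GST tag were expressed in E. coli and applied for 1 h, at about 25 μg on average, to an Agilent 4 × 180k array. The array held primer-extended double-stranded 36-bp intergenic genomic probes together with negative controls, and binding took place in 1× PBS with 1% milk, 0.2 mg/ml BSA, 0.5% salmon testes DNA and 0.03% Triton X-100. An Alexa488 anti-GST antibody detected bound protein, and the array was scanned at 488 nm. Binding intensity is taken as the highest Masliner-normalised natural-log median intensity across replicate spots of either probe orientation.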

Sequence	gcPBM binding intensity (ln)
ATGTGTATAATTAAATGTACATATATATATATATAT [XGTACX_site829]	10.2
ATTTGAAATTGGTAGACACACAATAAAATATCAAAA [CACACA_site447]	9.7
AAAAAGTTATTATGAACACACATTTATTATAGTCAT [CACACA_site6838]	9.74
CATATAAATATTTGTGCACACAATTATTAATAATTA [CACACA_site3884]	9.83
CACATTATGTATCATACACACAAATAAATATATAAT [CACACA_site4505]	9.84
ATATTATTAATATATTGTACTTTTTTTTTTTTATTT [XGTACX_site496]	9.64
ATATGTATTTAATTCACACAAAAATATGTTCATGAA [CACACA_site5223]	9.49
AATTTAATTATGGTAACACACAATAAAAAAAAATCT [CACACA_site568]	9.71
TTTTTTTTTTTCTTTGCACACAGATAACTTGAAATT [CACACA_site2184]	9.79
ATATTTTATTTTCCATGTACACAAAAAAAAAAAAAA [XGTACX_site8327]	9.27
AAGAAAATAAAGGATATGAAAAATAAAAAAAAGGAG [TGCATGCA_negctrl_site265]	9.81
AGGTTAAAAATAAATACACACATTTTATGGGTGTAT [CACACA_site4702]	9.71
TGAAAATAATTATAGGTGCATAAACATACGGATCTT	9.79
TTTTTTTTGTATTTTTCACACACTCTCTATCTCTCT [CACACA_site8655]	9.98
TATAAAAATAATATTACACACATGTAAAATGCCCGT [CACACA_site7522]	9.94
ATATATTAATAATAAATTAAAAGGAGTAACATTTTC [CACACA_negctrl_site320]	9.6
TAATATATAAGAAACAAAAAAAAATAAAAATATATA [TGCATGCA_negctrl_site153]	9.62
TAAAATAATTCGTAACGTACATATGTAATATAATAT [XGTACX_site6126]	9.87
CGCATACACGGACACACACACACATATATATATATA [CACACA_site4520]	10.9

Sequence	gcPBM binding intensity (ln)
AAAAAAAAAAAACACACACACACACTAATATATAAA [CACACA_site8302]	10.9
GGTATAAAGAAATTTTGTACATATTTCTCCCTTTAA [XGTACX_site1874]	9.41
ATTTCTCAATCGTAATGTACAAAAAAAAGGAAAAAA [XGTACX_site1193]	9.47
TTATATAGATGGAATAGTACAGTATATATATATATA [XGTACX_site8755]	9.68
TAAATATATATCATCACACACACATACATAAATATA [CACACA_site183]	10.7
AGCTCTATATTTTACACATGCGATTTGGATATATAT [TGCATGCA_site105]	9.84
CCTTTATATTATAAAAGTACATAATATTTTATAAGT [XGTACX_site1629]	9.4
ATATTACAACGTAACGAATATTTCATAAATTCTTAA [CACACA_negctrl_site770]	9.45
TACTGTATTATAATTATGATTGACGAAATTAAAAAT [GTGCAC_negctrl_site358]	9.36
ATTAGAAAAAAGATAGCACACACGGCCCAATATATA [CACACA_site2417]	10.1
TGAAATTTATAATAGTGTACAAAGAAAAAAAAAAAA [XGTACX_site4965]	9.64
AAGGTTATATAAAAAAGTACGCATAAGATGTTGTTC [XGTACX_site807]	9.77
CAATATAAAATAAAATGTACTTGTAGTAAAGGGATA [XGTACX_site1452]	9.93
ATAAAGGTTTTCCAAGCATGCCACATAGTGACATAC [TGCATGCA_site193]	9.48
GATGAGGACAAACACACACACATAAGTTGATACATA [CACACA_site3424]	10.3
AGATAGATACATACACGTACATATATATATACACAT [XGTACX_site4755]	9.88
TTTATGGATGTGTATGCATGCCTAAATAAATATATG [TGCATGCA_site916]	9.63
ACGACATATGGATGATGTACTATCTTTATTATACAT [XGTACX_site6857]	9.77
TCTCAAAAAAAAAAAAAAAAAAAAAAATTAAAAAAT [CACACA_negctrl_site1120]	9.15

Sequence	gcPBM binding intensity (ln)
TAAATAATGTAAAAAACATCATCAAAATGTTAATTA [CACACA_negctrl_site1768]	9.51
TAGAATAAACCAAGAAGTACTGTTTAATGAAAAGTA [XGTACX_site5712]	9.71
ATACCTAAAAAATATACACACATATTTATAAATATA [CACACA_site7260]	9.81
ATATATTATATGTACACACACATATAAGGGATTATA [CACACA_site5]	10.1
TATAAATATATATATACACACACATACACAAAAAAA [CACACA_site9191]	10.5
AAAAATATGAAGACACAATATAGAAATAAAAATATA [XGTACX_negctrl_site244]	9.73
TATTACTTGATATATACACACATATAACATAAATGC [CACACA_site7783]	9.75
TATTATAATATGTAGCGTACATTTTTTCTTTCTTTT [XGTACX_site7831]	9.69
AAAATAACATAAAAGAGTACTAAACCAAGATCAAAT [XGTACX_site7973]	9.96
TATATTTATATTCTTACATTTTTTATGTTTTTTTTT [CACACA_negctrl_site1017]	9.74
TAAACAGACATATAAACACACATATAAACCGACATA [CACACA_site2478]	10.3
GTCATATTATTCTTTTCACACACGCGTTAATAATAA [CACACA_site9302]	10.6
TATATATAATATTTTTCACACACCATTTCCTTAAAC [CACACA_site1341]	9.96
TTTTTTTTTTTTTTTTGTACATAATAAATGTTCTTA [XGTACX_site6754]	9.04
TGTATCTATAATAAAACACACATTTTTAATGTGCTC [CACACA_site6788]	9.7
ATAAATCAAATGCACACACACAAAAAAAAAAAAAAA [CACACA_site6221]	10.4
TACAAAAATATATAAACACACAAATATAATATATAT [CACACA_site2942]	9.88
TAATAAATGACAAATTAACACACATATATTATATAT [CACACA_site9294]	9.82
